According to the supplement of paper PMC11417369:
± gives the standard deviation of the averaged measurements. Some of the results follow.

These sequences were tested on PfAP2-I AP2 domain 3 (GST-tagged) (assay: gcPBM binding intensity (ln(normalized median fluorescence intensity)); higher = stronger DNA binding).
How it was run: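 Probes on an Agilent 4 × 180k array were primer-extended, double-stranded and 36 bp long, taken from intergenic genomic regions, with negative controls added. GST-tagged P. falciparum DNA-binding domains from E. coli, about 25 μg on average, were applied to the array for 1 h in 1× PBS containing 1% milk, 0.2 mg/ml BSA, 0.5% salmon testes DNA and 0.03% Triton X-100. Binding intensity, obtained after Alexa488 anti-GST antibody detection and a 488 nm scan, is the highest Masliner-normalised natural-log median intensity across replicate spots of either probe orientation.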

| Sequence | gcPBM binding intensity (ln) |
| --- | --- |
| TACATTTAAAAAAAAACACACATATTTATATTTATA [CACACA_site7236] | 7.28 ± 0.36 |
| TTTCCTGGTCAAGGGGTTACGGTTACGTCCTCTTGC [CACACA_negctrl_site856] | 7.38 ± 0.81 |
| CATATACATAGACACACACACACATAAATAAATATA [CACACA_site6749] | 7.88 ± 0.26 |
| TTATGTATTTATTTATGTACTAATTGTATGCATATT [XGTACX_site6436] | 7.82 ± 0.53 |
| ATACTTTATAAATACTAAAGTGTATTTTGTAATATA [CACACA_negctrl_site1710] | 7.58 ± 0.49 |
| ATTTGTATATATAATTGTACGCATATTCTATACGAT [XGTACX_site7367] | 7.96 ± 0.12 |
| TGTTCAGTATGGCACACACACAACAAAATAAAAAAA [CACACA_site4368] | 8.71 ± 0.16 |
| GGTTTACCCTATAAATGTACTCATAAATTATATATA [XGTACX_site5771] | 7.75 ± 0.43 |
| ATACGAAATAGAAACACACATACAATAAATAAATAT [CACACA_site2017] | 7.8 ± 0.69 |
| AGTAGCAAATATTAAGTGCATATTATATAATGTGTA [GTGCAC_site9546] | 9.04 ± 0.16 |
| TTTTTTTTTTTTTTTTGTACATATACATATATATAT [XGTACX_site1981] | 8.96 ± 0.028 |
| ATAAATATGGCAGTACGTACGTATATTCATATTCAT [XGTACX_site8042] | 7.93 ± 0.47 |
| ATTAAAAAAAAAAAAAAAAAACAAAAAAAAAAAAAA [CACACA_negctrl_site1187] | 7.96 ± 0.93 |
| TATATTATAATATTCACACACTAACGTAAATCATTG [CACACA_site7318] | 7.63 ± 0.45 |
| AAAAAATATATATATATATATATGTAATATTTTTTT [XGTACX_negctrl_site439] | 7.76 ± 0.46 |
| TGGCAAAATAGGCACACACACATATACAGATATATT [CACACA_site4727] | 8.06 ± 0.49 |
| TCAATGAAATTAATATGTACATATTTTTATATAGTA [XGTACX_site7955] | 7.66 ± 0.34 |
| AAAACTATAAAAATTTTACACACTGTTTTTAAATAA [CACACA_site3667] | 7.77 ± 0.62 |
| GTTCTTTCAAATTATACACACCAAAAAAAAAAAAAA [CACACA_site5660] | 8.04 ± 0.29 |
| TGATCAAGTAAGAAAAGTACAAAAAAAGTAAAAAAT [XGTACX_site6529] | 8 ± 0.58 |
| GATATGTTTTATTATGTTGATGATAACAGGTAGTTT [CACACA_negctrl_site356] | 7.67 ± 0.59 |
| ATAAGTTTTTATTTTCTGCACTGTCGAATAATAGTT | 9.11 ± 0.41 |
| ATGGATTATTTTTAAACATGCAGTAGTGATGAAAAA [TGCATGCA_site346] | 8.36 ± 0.53 |

| Sequence | gcPBM binding intensity (ln) |
| --- | --- |
| AAAAAAAACATACATACACACACATAAATATATATA [CACACA_site8864] | 8.19 ± 0.61 |
| TGCGGAAATAAGTGCACACATAGATATATGTATTTT [CACACA_site3689] | 10.2 ± 0.26 |
| ATATATATTAATAATGCATGTGATATAAATTAATAT [TGCATGCA_site930] | 8.11 ± 0.66 |
| ATATTATATATGTATAGTACATATTATAAGAAAAAT [XGTACX_site3457] | 7.79 ± 0.45 |
| ATCTATATCTATAATACACACATCATAAAATATGTA [CACACA_site7230] | 8.14 ± 0.41 |
| CGGCACATTCTATATACACACATATAAATATATACA [CACACA_site566] | 7.88 ± 0.42 |
| TACAATTCGTAATACACACACATATAAATAAATATT [CACACA_site7720] | 7.99 ± 0.14 |
| ATATAAAATATGTATGAGGAATAAAATTAAAAAAAA [XGTACX_negctrl_site173] | 7.51 ± 0.8 |
| TTTTTTTTGAAGAATACATGCATATTTTCTATATTC [TGCATGCA_site43] | 8.36 ± 0.83 |
| TATTAAATATATATTACATGCAAAAAAAAAAAACAA [TGCATGCA_site705] | 7.97 ± 0.52 |
| ACAATATGCAAAAAGTGTACACATTCATTTATATAA [XGTACX_site1061] | 8.34 ± 0.32 |
| AATATACAAATAAAGGTGCGAGATATTTTTACTTTT | 8.72 ± 0.43 |
| ATAAAAAAAGATGAACGTACATATATTTTAAAAATC [XGTACX_site5950] | 7.79 ± 0.53 |
| GTAAATATTTGTTGGGTGCTATCAATTATTTCAAAG | 8.7 ± 0.29 |
| TATATAAACATCGGTAGTACACACATTCATGTATTT [XGTACX_site6443] | 8.02 ± 0.28 |
| GGATCATTTTTAAAGGAACACACAAAAAAAATTATA [CACACA_site8381] | 7.85 ± 0.27 |
| ATGATATGGATAAATACACACAATATAATAATGGGT [CACACA_site4905] | 7.88 ± 0.66 |
| AAAAAAAACAGACACACACACATTCAATATAAAACA [CACACA_site41] | 7.79 ± 0.42 |
| ATATCTTATATTATCACACACACACCCACAAAACAG [CACACA_site1464] | 9.12 ± 0.52 |
| ATTTTATATATGTGTTGTACGGTGAACATTTTGATA [XGTACX_site6538] | 7.85 ± 0.47 |
| ATATGTATAAATATAAATATATATATATATATATAT [CACACA_negctrl_site705] | 9.3 ± 0.47 |
| ACGTTAATATCTACAAGTACCCACATTAACAGGAAA [XGTACX_site2616] | 8.11 ± 0.4 |
| TATTTTCATTATACTACTTCGAAGATACCCTTTTTT [CACACA_negctrl_site256] | 7.75 ± 0.71 |

| Sequence | gcPBM binding intensity (ln) |
| --- | --- |
| AGATAAATATATTGTAGTACAGGAGCATAAATATAT [XGTACX_site8267] | 8.47 ± 0.45 |
| GTTCTTCCTTGTAAATGTACAAATACAAAATGTTCC [XGTACX_site6738] | 8.19 ± 0.59 |
| TATAAACATTAAAGGTGTACAATTTAATTTCAATTT [XGTACX_site2944] | 7.82 ± 0.23 |
| TTAAGATCCTAAAAAACACACAATTGCGAATAATAA [CACACA_site6005] | 7.68 ± 0.73 |
| ATATCATAAAAAATGTGTACATATATGAACATATAA [XGTACX_site2239] | 7.8 ± 0.3 |
| GATATATATGTTCACACACACATGGAAATATATATA [CACACA_site4371] | 8.01 ± 0.62 |
| GGAAATTAACAGAACACAATGTAACAATTTCTAACA [CACACA_negctrl_site1250] | 7.54 ± 0.74 |
| TTTCTTCTTCAATGTTGTACTTTTCTCTTTTCTTAA [XGTACX_site1017] | 7.96 ± 0.61 |
| GTTCATAAAAATTTTTGTACCCATAAAATATTCCTC [XGTACX_site8611] | 8.07 ± 0.58 |
| TTTTTTTTTTTTAATTGTACTTATTAAAAAAAGCAA [XGTACX_site8713] | 8.05 ± 0.64 |
| GTAGGTGTTTTTGGTTGTACATATAAATATATATAC [XGTACX_site3380] | 8.28 ± 0.45 |
| GAAGTTTTCTTAAAGATGCACTTTTTAAAAATAAAA [GTGCAC_site9941] | 8.94 ± 0.25 |
| TCTTCTTTTTTTTTTTTGTATTATTATAAATATTAT [CACACA_negctrl_site1668] | 7.62 ± 0.37 |
| AAGATAAAATGATGCACACAAAAGGGTGTAATATAT [CACACA_site1706] | 9.22 ± 0.29 |
| TTTTTTTTTTTTAATGCACACAATATATAATATGTA [CACACA_site3694] | 11.2 ± 0.4 |
| TTTTTTTTTTTTCAATCACACATGTTTTAATTATTT [CACACA_site5532] | 8.11 ± 0.86 |
| TGTAATAATATTTATGTGCACATATATTAAACTATA [GTGCAC_site9584] | 9.88 ± 0.057 |
| TCATTTCACAGACACACACACACAAGATATTTCCTT [CACACA_site7774] | 8.02 ± 0.57 |
| TGTACGTTTTATAACACACACACAAAAAAAAAAAAA [CACACA_site3875] | 8.21 ± 0.57 |
| TATGCACTTTAGGGCAGTACGTCAACATTATCTTTA [XGTACX_site3382] | 8.38 ± 0.19 |
| CCTCATACGAAATATAAACACACATACAATAAATAA [CACACA_site8620] | 7.78 ± 0.65 |
| TGTTAAAATTATTTGGTGCACTTGTTTTACCTTATT | 10.8 ± 0.48 |
| TATATTTATTATAACACACACATATAAATATTATAG [CACACA_site6726] | 7.95 ± 0.48 |

| Sequence | gcPBM binding intensity (ln) |
| --- | --- |
| ATAAATTTTTTTTTTTTTTTTTTTTTTTTTTTTTTT [CACACA_negctrl_site508] | 10.09 ± 0.014 |
| ATTTTTTTCATAGACACACACAATATATCTGTTTCC [CACACA_site3023] | 8.11 ± 0.81 |
| ATATTATTATATATAGTGCATATTATTATTTTTATT | 10.2 ± 0.42 |
| CATTATTCTTTTAATATACACACTTTGTCTTTTCGC [CACACA_site2762] | 7.94 ± 0.85 |
| TCTCATAGTAAACACACACACACACCCACATATATA [CACACA_site5034] | 8.24 ± 0.26 |
| AAATGAACATATATGTGTACTTATATTTTTCTAAAT [XGTACX_site3388] | 7.72 ± 0.35 |
| ATATATTTTTCTTTACGTACGAAGCAAAATAACATT [XGTACX_site8145] | 7.83 ± 0.45 |
| AAAAAAAAAAAAAACACATGCAGAAGAAAAAAAATA [TGCATGCA_site545] | 8.16 ± 0.62 |
| AATTGTTTTTTTTTCTTATTTTATGTTATACACACA [TGCATGCA_negctrl_site380] | 7.95 ± 0.63 |
| TCATTAAATGTTTAGGTGCATACTTTAATTTTTAAT [GTGCAC_site9906] | 9.32 ± 0.12 |
| AAAAAAAAAAAAAAAGTGCATATATAAATATTGTAT [GTGCAC_site9459] | 10.1 ± 0.18 |
| ATTATATAAGTACACAAACAAGTATGAGATTCAAAA [GTGCAC_negctrl_site119] | 7.96 ± 0.16 |
| TGTTTTAAACTAATTTGTACATAGTTATTTATATTT [XGTACX_site7196] | 7.49 ± 0.48 |
| CCATATATTTGGTATAGTACTTTTTATTTTATTTCA [XGTACX_site8933] | 7.97 ± 0.25 |
| CACAAATATATACATACACACATATATACACATATA [CACACA_site8024] | 7.83 ± 0.6 |
| AAAACGCAGTTTAATATACACACCAAAAAAAAAAAA [CACACA_site3036] | 7.92 ± 0.69 |
| TTTGAGATGTGGTGTACACAAAATTAGGTACACATC [CACACA_site5773] | 8.32 ± 0.51 |
| AAATATTATAATAATTGTACTATATATACAGTTATT [XGTACX_site1963] | 7.58 ± 0.49 |
| TAAAATATGTCATGGGTGCTTCTTTTTATACCTATG [GTGCAC_site9888] | 8.49 ± 0.38 |
| AAAAAAAAAAAATTATGTACATATTATATATAATGG [XGTACX_site2885] | 7.77 ± 0.45 |
